Among all 310,000 compounds or so, about 2,200 (0.71%) showed an effect of 50% or more. The effect is printed as a negative number. This is one part of the list.
Biological target: human ether-à-go-go-related gene (hERG) potassium channel (human, UniProt Q12809)
Test: primary screen, population patch clamp on CHO cells stably expressing hERG

human ether-à-go-go-related gene (hERG) potassium channel, sequence (Q12809 whole entry, looked up): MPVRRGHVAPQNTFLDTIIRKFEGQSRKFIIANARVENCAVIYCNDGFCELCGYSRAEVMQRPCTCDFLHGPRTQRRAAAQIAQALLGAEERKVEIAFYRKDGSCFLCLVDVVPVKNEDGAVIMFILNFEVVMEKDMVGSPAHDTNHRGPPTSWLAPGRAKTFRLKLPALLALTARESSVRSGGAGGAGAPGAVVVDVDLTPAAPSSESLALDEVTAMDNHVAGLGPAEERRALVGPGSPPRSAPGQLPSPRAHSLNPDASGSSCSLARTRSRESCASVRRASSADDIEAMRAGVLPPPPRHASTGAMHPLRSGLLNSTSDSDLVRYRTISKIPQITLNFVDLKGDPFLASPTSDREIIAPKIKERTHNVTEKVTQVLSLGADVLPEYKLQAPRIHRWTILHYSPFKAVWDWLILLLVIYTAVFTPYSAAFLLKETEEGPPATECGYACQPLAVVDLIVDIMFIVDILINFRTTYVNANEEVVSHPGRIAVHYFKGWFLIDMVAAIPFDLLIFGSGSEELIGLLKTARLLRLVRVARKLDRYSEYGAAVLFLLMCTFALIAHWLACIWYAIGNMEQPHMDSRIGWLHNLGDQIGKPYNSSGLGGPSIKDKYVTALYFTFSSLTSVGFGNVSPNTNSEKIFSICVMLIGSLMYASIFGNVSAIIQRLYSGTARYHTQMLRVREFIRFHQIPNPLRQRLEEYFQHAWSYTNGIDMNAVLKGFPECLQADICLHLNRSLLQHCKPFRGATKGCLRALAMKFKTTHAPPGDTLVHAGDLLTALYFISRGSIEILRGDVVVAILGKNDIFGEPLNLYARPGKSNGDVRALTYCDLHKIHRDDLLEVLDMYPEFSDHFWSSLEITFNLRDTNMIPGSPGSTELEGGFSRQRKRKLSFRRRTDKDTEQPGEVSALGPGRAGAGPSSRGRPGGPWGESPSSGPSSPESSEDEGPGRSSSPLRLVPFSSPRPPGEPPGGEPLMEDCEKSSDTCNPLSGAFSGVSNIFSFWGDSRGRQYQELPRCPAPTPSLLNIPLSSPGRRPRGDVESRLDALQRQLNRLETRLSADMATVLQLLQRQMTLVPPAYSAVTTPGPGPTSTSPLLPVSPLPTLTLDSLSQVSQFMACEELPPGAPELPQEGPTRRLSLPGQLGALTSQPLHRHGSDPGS

SMILES	hERG current change (%, negative = inhibition) at 1uM [%]
O=C(CSCc1ccccc1Cl)Nc1ccc(C(=O)O)cc1	20
O=C(CCS(=O)(=O)c1ccccc1)Nc1nc2cc3c(cc2s1)OCO3	10.3
O=C(c1cccs1)N(Cc1ccco1)c1nc(-c2ccc(F)cc2)cs1	-1.03
CC(C)(C)CN1CCN(Cc2cc3ccccc3[nH]2)CC1CCO (stereo not drawn)	7.74
O=C(CCC(=O)N1CCOc2ccc(Cl)cc21)NCCCN1CCC(Cc2ccccc2)CC1	-64.7
Cc1ccc(CNC(=O)C2(C)Oc3ccccc3NC2=O)cc1 (stereo not drawn)	1.94
CCN(CC(=O)NC(=O)NC1CCCC1)Cc1ccccc1	8.77
CC(C)CCCN1C(Nc2ccccc2)=NC[C@@H]1Cc1ccccc1	-28.4
CCN(CC(=O)Nc1ccc(OC)cc1)C(=O)c1ccc([N+](=O)[O-])cc1	10.1
CCC1=Nc2cc(C(=O)NCC3CCCO3)ccc2Sc2ccc(Br)cc21 (stereo not drawn)	9.21
Cc1cc(-c2nnc(-c3cc4ccccc4oc3=O)o2)c(C)n1-c1ccccc1	9.2
CSCCCNC(=S)N1CCc2ccccc2C1	8.63
O=C(N/N=C/c1ccc(OC(=O)c2cccc(F)c2)cc1)c1cccnc1	-16.2
Cc1cc(C)c(S(=O)(=O)N2CCOC2CNC(=O)C(=O)NCCCN2CCCC2=O)c(C)c1 (stereo not drawn)	7.05
O=[N+]([O-])c1ccc2nc(-c3ccc(OC(F)F)cc3)cn2c1	-2.23
CC1(C)OC(C)(C)/C(=C\c2ccc(OCC(N)=O)cc2)C1=O	10.4
CCCCn1c(CN2CCN(c3ccc(F)cc3)CC2)nc2c1c(=O)n(C)c(=O)n2C	4.22
O=C(O)c1ccc(/C=N/Nc2ccc(S(=O)(=O)N3CCCC3)cc2[N+](=O)[O-])cc1	8.64
Cc1cc(C)nc(Nc2ccc(N3CCOCC3)cc2)n1	14.1
Cc1c(C(=O)Nc2ccc(F)cc2)cn2c(nc3ccccc32)c1C#N	5.63
CC1(C)C2CCC(C2)C1(C)NC(=O)CN1CCCC1.Cl (stereo not drawn)	12.7
O=C(NC1=NCCS1)C1Cc2ccccc2CN1C(=O)c1ccccc1 (stereo not drawn)	5.48

SMILES	hERG current change (%, negative = inhibition) at 1uM [%]
CCn1cc(C(=O)N[C@H](C(=O)NCCCn2ccnc2)C(C)C)c(=O)c2cc3c(cc21)OCO3	19.1
Cc1cc(C)nc(OC(C(=O)O)C(OCc2ccccc2)(c2ccccc2)c2ccccc2)n1 (stereo not drawn)	20.2
O=S(=O)(c1ccc(Cl)c(S(=O)(=O)N2CCCC2)c1)N1CCCC1	9.15
COc1ccc(/C=C(\NC(=O)/C=C/c2ccco2)C(=O)NCCc2nc3ccccc3[nH]2)cc1	-10.5
O=C(CSc1nnc(-c2ccco2)n1-c1ccccc1Cl)Nc1cccc(C(=O)O)c1	20.4
CCCn1c(=O)[nH]c(=O)c2c1nc(-c1cc([N+](=O)[O-])ccc1Cl)n2CCOC	7.18
C/C(=N/NC(=O)CNC(=O)c1cccs1)c1ccc(Cl)cc1	14.8
O=C(Nc1ccc(N2CCOCC2)cc1)c1c(F)cccc1Cl	-0.893
O=C(Nc1cc(C(F)(F)F)ccc1Cl)c1ccc(NC(=O)C(F)(F)F)cc1	2.84
N#Cc1ccc(COc2ccc(CCO)cc2-n2nc3ccccc3n2)cc1	-22.4
N#Cc1ccsc1NC(=O)c1ccc(Cl)c([N+](=O)[O-])c1	18.4
N#C/C(=C\c1ccc(N2CCCC2)c([N+](=O)[O-])c1)c1nc2ccccc2[nH]1	-4.76
C[C@]12CCC(=O)C(O)=C1CC[C@@H]1[C@@H]2CC[C@]2(C)C(=O)CC[C@@H]12	7.7
CC(C)n1c2ccccc2c2nc3ccccc3nc21	4.8
O=C(O)CN1CCN(Cc2ccccc2F)C1=O	13.4
N#CCSc1nnc(-c2ccc3c(c2)OCO3)o1	16.8
O=C(Nc1ccccc1C(=O)N/N=C/c1ccncc1)c1ccccc1	11
CN1C(=O)CSc2ccc(NC(=O)NCc3cccnc3)cc21	7.28
Cc1ccc2nc(-c3ccncc3)cc(C(=O)Nc3ccc(F)cc3C)c2c1	5.85
CCn1ncc(Br)c1C(=O)Nc1sc2c(c1C(=O)OC)CCC2	-2.58
COc1ccc(CCNC(=O)CC(NS(=O)(=O)c2ccc(NC(C)=O)cc2)C(C)C)cc1OC (stereo not drawn)	15.8
CCOc1cnc(C(=O)NNC(=O)C(Br)C(C)C)o1 (stereo not drawn)	3.22

SMILES	hERG current change (%, negative = inhibition) at 1uM [%]
COc1cc2c(cc1NC(=O)Cc1ccc(C)cc1)oc1ccccc12	-0.105
CC(C)N(CC#CC(O)(c1ccccc1)c1ccccc1)CCO	7.65
COc1ccc(-c2nn(C)c(=O)c3ccccc23)cc1NC(=O)Cn1nc(C)c2ccccc2c1=O	-8.55
CC(C)C(=O)OCCN=C1NS(=O)(=O)c2ccccc21	-6.65
CS(=O)(=O)Nc1ccc(C(=O)N2CCc3ccccc3C2)cc1	3.75
COc1ccccc1S(=O)(=O)CC(O)COc1ccc(F)cc1Cl (stereo not drawn)	12.6
CCN(CC(=O)Nc1ccc(NC(C)=O)cc1)C(=O)C1CC(=O)N(CCc2ccc(OC)c(OC)c2)C1 (stereo not drawn)	0.0909
CNC(=S)NCCCc1ccccc1	-0.904
COc1cccc(NC(C)C(=O)N2CC(C)OC(C)C2)c1 (stereo not drawn)	5.02
CC1CC(C)CN(C(=O)c2ccc(S(=O)(=O)N3CC(C)CC(C)C3)cc2)C1 (stereo not drawn)	-8.04
Cn1nc(C(=O)OCC(=O)c2ccc[nH]2)c2ccccc2c1=O	1.29
CCOC(=O)c1cccc(-c2c(-c3ccccc3)ncc3cc(OC)c(OC)cc23)c1	16.5
COc1ccc(OC)c(CN2C(=O)c3ccccc3C2C(=O)NCC2CCCO2)c1 (stereo not drawn)	11.1
CN(C)CCCN(Cc1cc2cc3c(cc2[nH]c1=O)OCO3)C(=S)NCc1ccco1	6.62
CCN(CC)CCN1C(=O)C(=O)/C(=C(/O)c2ccc(S(=O)(=O)N3CCOCC3)cc2)C1c1ccc(C(C)(C)C)cc1 (stereo not drawn)	16.9
Cc1ccc(CN(Cc2ccccn2)C(=O)Nc2ccc(C)c(C)c2)cc1	9.91
Cc1ccc(N)c(C(=O)CCCCC(=O)O)c1	8.97
Cc1nc2ccc(NC(=O)c3cnc(Cl)c(Cl)c3)cc2s1	4.43
CC1(C)Cc2nc3oc4c(N(CCO)Cc5ccccc5)ncnc4c3cc2CO1	-31.9
O=C1COc2ccccc2N1Cc1ccc(Cl)cc1	6.82
CCNc1nc(NCC)nc(Oc2ccc(N)cc2)n1	2.88
O=[N+]([O-])c1ccccc1S(=O)(=O)N1CCCCC1	10.7

SMILES	hERG current change (%, negative = inhibition) at 1uM [%]
CC(C)CC(=O)NC(=S)NCCc1ccccc1	2.4
CCC(=NCCCN1CCOCC1)c1c(O)n(Cc2ccccc2)c(=O)[nH]c1=O	-17.9
COc1ccc(OC)c(N2C(N)=C(C#N)C(c3ccc(OC)c(O)c3)C3=C2CC(C)(C)CC3=O)c1 (stereo not drawn)	7.15
Cc1cccc(CN2CCc3c([nH]c4ccccc34)C2)c1	7.42
CCOC(=O)Cc1csc(NC(=O)C2C3C=CC(C3)C2C(=O)O)n1 (stereo not drawn)	6.57
COc1cc(C#N)ccc1OC(=O)c1cccc(S(=O)(=O)N2CCN(C)CC2)c1	-6.24
Cc1ccc(C2=N/C(=C\c3cccc(F)c3)C(=O)O2)cc1	9.41
CN(C(=O)COC(=O)c1cc(F)c(F)cc1Cl)c1ccccc1	2.57
COc1ccc(CCC(=O)Nc2ccc(S(=O)(=O)N3CCOCC3)cc2)cc1	5
O=C(/C=C/c1cccc(F)c1)NC1CCN(Cc2ccccc2)CC1	-51.4
CCCc1ccc2oc(C(=O)N3CCC(N4CCCC(O)C4)CC3)c(C)c2c1 (stereo not drawn)	4.07
N#Cc1ccc(/C=C2\CCCCn3c2nc2cc(C(=O)O)ccc2c3=O)cc1	20.2
CC(/C=N/Nc1ncc(C)c(=O)[nH]1)=C\c1ccccc1	-5.06
COc1ccccc1CNS(=O)(=O)c1ccc(-n2cnnn2)c(OC)c1	-2.73
COc1ccc(NC(=O)CCC(=O)Nc2cc(OC)c(NC(=O)c3cccs3)cc2OC)cc1	12.7
Cc1onc(-c2ccccc2)c1-c1ccnc(N)n1	7.76
CCOc1ccc(CN(C)C(=O)CNC(=O)C2CCCCC2)cc1OC	9.71
CCN(CC)/C(=N/O)NC(=O)NS(=O)(=O)c1ccc(C)cc1	15.5
CN(C)CCSCc1nnc2n1-c1ccc(Cl)cc1C(c1ccccc1Cl)=NC2.c1ccccc1	-51.9
Cc1ccc(C(NC(=O)N2CCCC2)C(Cl)(Cl)Cl)cc1F (stereo not drawn)	17.2
Cc1onc(C(=O)Nc2cccc(C(F)(F)F)c2)c1[N+](=O)[O-]	4.65

From publication PMC4336329 (PLoS ONE, 2015)
